Measurements: PMC10165274 (2023)

Molecular target: N555-hRFC, N-terminal truncation variant of the human replication factor C clamp loader complex (human, UniProt P35251 1-1148; P35250; P40938; P35249; P40937, Limits not printed: N555 is taken by convention as deletion of RFC1 (p140) residues 1-555, BRCT domain removed. The vector initiator Met is not included. Assayed with ATP/Mg2+.)
Assay: apparent Kd from RFC ATP hydrolysis

Kd: 154 nM
B1: PCNA-C148S (natural protein)
chain: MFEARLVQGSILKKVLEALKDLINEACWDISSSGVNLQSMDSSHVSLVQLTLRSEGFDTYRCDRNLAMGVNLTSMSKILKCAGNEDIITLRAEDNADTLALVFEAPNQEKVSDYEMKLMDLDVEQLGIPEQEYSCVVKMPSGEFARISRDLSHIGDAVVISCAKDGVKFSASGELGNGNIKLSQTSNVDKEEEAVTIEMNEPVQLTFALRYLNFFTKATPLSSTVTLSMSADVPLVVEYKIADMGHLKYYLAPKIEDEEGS
